Measured values as given in the supplement of paper PMC8728848.
Some of the results follow.

Legend:
Assay in all cases: glycan array binding signal (z-score within array); higher = stronger binding
Settings in all cases: glycan notation: IUPAC condensed, linker removed
[1] = target: Gal(b1-4)GlcNAc(b1-2)[Gal(b1-4)GlcNAc(b1-6)]Man(a1-6)[GlcNAc(b1-4)][Gal(b1-4)GlcNAc(b1-2)Man(a1-3)]Man(b1-4)GlcNAc(b1-4)GlcNAc
In short: (§1)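 Glycan array data came from 3228 arrays in the Consortium for Functional Glycomics database, and only arrays with an available protein sequence were kept. Glycan names were put into IUPAC-condensed notation, and columns mapping to the same glycan were averaged. The binding signal is a within-array Z-score, averaged across arrays of one protein sequence run at different concentrations or buffers and across linkers. A negative Z-score can be read as non-binding.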

[2] = target: Gal(b1-4)GlcNAc(b1-2)[Gal(b1-4)GlcNAc(b1-6)]Man(a1-6)[GlcNAc(b1-4)][Gal(b1-4)GlcNAc(b1-2)[Gal(b1-4)GlcNAc(b1-4)]Man(a1-3)]Man(b1-4)GlcNAc(b1-4)[Fuc(a1-6)]GlcNAc
In short: as §1

[3] = target: Gal(b1-4)GlcNAc(b1-3)Gal(b1-3)GalNAc
In short: as §1

[4] = target: Gal(b1-4)GlcNAc(b1-3)Gal(b1-3)GlcNAc
In short: as §1

[5] = target: Gal(b1-4)GlcNAc(b1-3)Gal(b1-4)Glc
In short: as §1

[6] = target: Gal(b1-4)GlcNAc(b1-3)Gal(b1-4)GlcNAc
In short: as §1

[7] = target: Gal(b1-4)GlcNAc(b1-3)Gal(b1-4)GlcNAc(b1-2)Man(a1-3)[Gal(b1-4)GlcNAc(b1-3)Gal(b1-4)GlcNAc(b1-2)Man(a1-6)]Man(b1-4)GlcNAc(b1-4)GlcNAc
In short: as §1

[8] = target: Gal(b1-4)GlcNAc(b1-3)Gal(b1-4)GlcNAc(b1-2)Man(a1-3)[Gal(b1-4)GlcNAc(b1-3)Gal(b1-4)GlcNAc(b1-2)Man(a1-6)]Man(b1-4)GlcNAc(b1-4)[Fuc(a1-6)]GlcNAc
In short: as §1

[9] = target: Gal(b1-4)GlcNAc(b1-3)Gal(b1-4)GlcNAc(b1-2)[Gal(b1-4)GlcNAc(b1-3)Gal(b1-4)GlcNAc(b1-6)]Man(a1-6)[Gal(b1-4)GlcNAc(b1-3)Gal(b1-4)GlcNAc(b1-2)Man(a1-3)]Man(b1-4)GlcNAc(b1-4)GlcNAc
In short: as §1

[10] = target: Gal(b1-4)GlcNAc(b1-3)Gal(b1-4)GlcNAc(b1-2)[Gal(b1-4)GlcNAc(b1-3)Gal(b1-4)GlcNAc(b1-6)]Man(a1-6)[Gal(b1-4)GlcNAc(b1-3)Gal(b1-4)GlcNAc(b1-2)Man(a1-3)]Man(b1-4)GlcNAc(b1-4)[Fuc(a1-6)]GlcNAc
In short: as §1

[11] = target: Gal(b1-4)GlcNAc(b1-3)Gal(b1-4)GlcNAc(b1-3)Gal(b1-4)GlcNAc
In short: as §1

[12] = target: Gal(b1-4)GlcNAc(b1-3)Gal(b1-4)GlcNAc(b1-3)Gal(b1-4)GlcNAc(b1-2)Man(a1-3)[Gal(b1-4)GlcNAc(b1-3)Gal(b1-4)GlcNAc(b1-3)Gal(b1-4)GlcNAc(b1-2)Man(a1-6)]Man(b1-4)GlcNAc(b1-4)GlcNAc
In short: as §1

[13] = target: Gal(b1-4)GlcNAc(b1-3)Gal(b1-4)GlcNAc(b1-3)Gal(b1-4)GlcNAc(b1-2)Man(a1-3)[Gal(b1-4)GlcNAc(b1-3)Gal(b1-4)GlcNAc(b1-3)Gal(b1-4)GlcNAc(b1-2)Man(a1-6)]Man(b1-4)GlcNAc(b1-4)[Fuc(a1-6)]GlcNAc
In short: as §1

[14] = target: Gal(b1-4)GlcNAc(b1-3)Gal(b1-4)GlcNAc(b1-3)Gal(b1-4)GlcNAc(b1-2)[Gal(b1-4)GlcNAc(b1-3)Gal(b1-4)GlcNAc(b1-3)Gal(b1-4)GlcNAc(b1-6)]Man(a1-6)[Gal(b1-4)GlcNAc(b1-3)Gal(b1-4)GlcNAc(b1-3)Gal(b1-4)GlcNAc(b1-2)Man(a1-3)]Man(b1-4)GlcNAc(b1-4)[Fuc(a1-6)]GlcNAc
In short: as §1

[15] = target: Gal(b1-4)GlcNAc(b1-3)Gal(b1-4)GlcNAc(b1-3)Gal(b1-4)GlcNAc(b1-3)Gal(b1-4)GlcNAc(b1-2)Man(a1-3)[Gal(b1-4)GlcNAc(b1-3)Gal(b1-4)GlcNAc(b1-3)Gal(b1-4)GlcNAc(b1-3)Gal(b1-4)GlcNAc(b1-2)Man(a1-6)]Man(b1-4)GlcNAc(b1-4)GlcNAc
In short: as §1

[16] = target: Gal(b1-4)GlcNAc(b1-3)Gal(b1-4)GlcNAc(b1-3)Gal(b1-4)GlcNAc(b1-3)Gal(b1-4)GlcNAc(b1-2)Man(a1-3)[Gal(b1-4)GlcNAc(b1-3)Gal(b1-4)GlcNAc(b1-3)Gal(b1-4)GlcNAc(b1-3)Gal(b1-4)GlcNAc(b1-2)Man(a1-6)]Man(b1-4)GlcNAc(b1-4)[Fuc(a1-6)]GlcNAc
In short: as §1

[17] = target: Gal(b1-4)GlcNAc(b1-3)Gal(b1-4)GlcNAc(b1-3)Gal(b1-4)GlcNAc(b1-3)Gal(b1-4)GlcNAc(b1-2)[Gal(b1-4)GlcNAc(b1-3)Gal(b1-4)GlcNAc(b1-3)Gal(b1-4)GlcNAc(b1-3)Gal(b1-4)GlcNAc(b1-6)]Man(a1-6)[Gal(b1-4)GlcNAc(b1-3)Gal(b1-4)GlcNAc(b1-3)Gal(b1-4)GlcNAc(b1-3)Gal(b1-4)GlcNAc(b1-2)Man(a1-3)]Man(b1-4)GlcNAc(b1-4)[Fuc(a1-6)]GlcNAc
In short: as §1

[18] = target: Gal(b1-4)GlcNAc(b1-3)Gal(b1-4)GlcNAc(b1-3)Gal(b1-4)GlcNAc(b1-3)Gal(b1-4)GlcNAc(b1-3)Gal(b1-4)GlcNAc(b1-2)Man(a1-3)[Gal(b1-4)GlcNAc(b1-3)Gal(b1-4)GlcNAc(b1-3)Gal(b1-4)GlcNAc(b1-3)Gal(b1-4)GlcNAc(b1-3)Gal(b1-4)GlcNAc(b1-2)Man(a1-6)]Man(b1-4)GlcNAc(b1-4)GlcNAc
In short: as §1

[19] = target: Gal(b1-4)GlcNAc(b1-3)Gal(b1-4)GlcNAc(b1-3)Gal(b1-4)GlcNAc(b1-3)Gal(b1-4)GlcNAc(b1-3)Gal(b1-4)GlcNAc(b1-2)Man(a1-3)[Gal(b1-4)GlcNAc(b1-3)Gal(b1-4)GlcNAc(b1-3)Gal(b1-4)GlcNAc(b1-3)Gal(b1-4)GlcNAc(b1-3)Gal(b1-4)GlcNAc(b1-2)Man(a1-6)]Man(b1-4)GlcNAc(b1-4)[Fuc(a1-6)]GlcNAc
In short: as §1

[20] = target: Gal(b1-4)GlcNAc(b1-3)Gal(b1-4)GlcNAc(b1-3)Gal(b1-4)GlcNAc(b1-3)Gal(b1-4)GlcNAc(b1-3)Gal(b1-4)GlcNAc(b1-2)[Gal(b1-4)GlcNAc(b1-3)Gal(b1-4)GlcNAc(b1-3)Gal(b1-4)GlcNAc(b1-3)Gal(b1-4)GlcNAc(b1-3)Gal(b1-4)GlcNAc(b1-6)]Man(a1-6)[Gal(b1-4)GlcNAc(b1-3)Gal(b1-4)GlcNAc(b1-3)Gal(b1-4)GlcNAc(b1-3)Gal(b1-4)GlcNAc(b1-3)Gal(b1-4)GlcNAc(b1-2)Man(a1-3)]Man(b1-4)GlcNAc(b1-4)[Fuc(a1-6)]GlcNAc
In short: as §1

[21] = target: Gal(b1-4)GlcNAc(b1-3)Gal(b1-4)GlcNAc(b1-3)Gal(b1-4)GlcNAc(b1-3)Gal(b1-4)GlcNAc(b1-3)Gal(b1-4)GlcNAc(b1-3)Gal(b1-4)GlcNAc(b1-2)Man(a1-3)[Gal(b1-4)GlcNAc(b1-3)Gal(b1-4)GlcNAc(b1-3)Gal(b1-4)GlcNAc(b1-3)Gal(b1-4)GlcNAc(b1-3)Gal(b1-4)GlcNAc(b1-3)Gal(b1-4)GlcNAc(b1-2)Man(a1-6)]Man(b1-4)GlcNAc(b1-4)GlcNAc
In short: as §1

[22] = target: Gal(b1-4)GlcNAc(b1-3)Gal(b1-4)GlcNAc(b1-3)GalNAc
In short: as §1

[23] = target: Gal(b1-4)GlcNAc(b1-3)Gal(b1-4)GlcNAc(b1-3)[Gal(b1-4)GlcNAc(b1-3)Gal(b1-4)GlcNAc(b1-6)]GalNAc
In short: as §1

B1: PfulAvr4 2 (Pseudocercospora fuligena) (protein)
chain: HHHHHHDYKDDDDKAKPIKPFACPPKDFTTTKCQGPVDCLYANPLSCLGYIQCVCDDDACSTATPYAKSCPTGLAWVEKLKRCDGIKKSACPKKMYEGS
- glycan array binding signal (z-score) [1]: -0.393
- glycan array binding signal (z-score) [2]: -0.27
- glycan array binding signal (z-score) [3]: -0.334
- glycan array binding signal (z-score) [4]: -0.464
- glycan array binding signal (z-score) [5]: -0.288
- glycan array binding signal (z-score) [6]: -0.277
- glycan array binding signal (z-score) [7]: 0.587
- glycan array binding signal (z-score) [8]: -0.268
- glycan array binding signal (z-score) [9]: 4.76
- glycan array binding signal (z-score) [10]: -0.241
- glycan array binding signal (z-score) [11]: -0.401
- glycan array binding signal (z-score) [12]: 0.129
- glycan array binding signal (z-score) [13]: -0.158
- glycan array binding signal (z-score) [14]: -0.331
- glycan array binding signal (z-score) [15]: -0.08
- glycan array binding signal (z-score) [16]: -0.233
- glycan array binding signal (z-score) [17]: -0.332
- glycan array binding signal (z-score) [18]: 0.011
- glycan array binding signal (z-score) [19]: -0.044
- glycan array binding signal (z-score) [20]: -0.223
- glycan array binding signal (z-score) [21]: -0.29
- glycan array binding signal (z-score) [22]: 0.111
- glycan array binding signal (z-score) [23]: 0.716
